We go through 22 molecules from article PMC12136788.

The list shows a part of the results.

B1: chr9:26926431:26926536:-|CDS|ENSG00000137055|unk|total|mutant (ssRNA)
RNA: GGGAGUUCUACAGUCCGACGAUCAGAGGUUUGGCAAUUUUGAGUGAAACAGAAUUUCUUUCCUGUGCAAAUGAUGCCCGUAUCCGAAGGUGGCAAAUCACUGGCGAGUGUCUUGAAGUAUAUUAUGGACAUACAAAUUAUAUUCAACAGAGGAUUGAGCAUCA
B2: ENSG00000100350:stop:overlap|stop_codon|ENSG00000100350|stop_codon|NA|stop_codon (ssRNA)
RNA: GGGAGUUCUACAGUCCGACGAUCGGCGACCAAGAGCCACUAGGUUCCCCCCUGGCUCCAGGGCCUCUGGCUCAGUCCGUCGAUAGCAACAAAGAGGAGCUCUGACUGUCCCUUCCUAAGCUGUGGGCACAGUGGCCAGGCCUCCAACAGAGGAUUGAGCAUCA
B3: chr2:200815332:200815484:+|CDS|ENSG00000082153|unk|total|mutant (ssRNA)
RNA: GGGAGUUCUACAGUCCGACGAUCUCAGUUUCAAGACUGUAUUAUUCAAGGCUUAACUGAAACCGGUACUGAUUUGGAAGCAGCCGCUAAGUUUCUUGAUGCUUCUGGAGCAAAACUUGAUUACCGUCGAUAUGCAGAAACACUCAACAGAGGAUUGAGCAUCA
B4: ENSG00000147955:stop:overlap|stop_codon|ENSG00000147955|stop_codon|NA|stop_codon (ssRNA)
RNA: GGGAGUUCUACAGUCCGACGAUCCUUCCACCAGUGGAGAGAGGGCACCACCAAAAGUGAGGUCUUCUACCCAGGGGAGACGGUAGUACACGGGCCUGGUGAGGCAACAGCUGUGGAGUGGGGGCCAAACACAUGGAUGGUGGACAACAGAGGAUUGAGCAUCA
B5: ENSG00000066855:stop:overlap|stop_codon|ENSG00000066855|stop_codon|NA|stop_codon (ssRNA)
RNA: GGGAGUUCUACAGUCCGACGAUCGAGUGUUGUCCCUUCCAGCUGGCUUUAUUCAGCCCCACGUGUCCAAGCAUUGUCUGGGAUAGCCUUGUAUUGGAAAACCUGGCCCAUUCUGUAAAUAAAGGCUCCACUAGAAAAGACUCGCAACAGAGGAUUGAGCAUCA
B6: chr1:23559171:23559278:-|CDS|ENSG00000117318|unk|FALSE|unique (ssRNA)
RNA: GGGAGUUCUACAGUCCGACGAUCAACCACUGCUACUCCCGCCUGCGGGAACUGGUACCCGGAGUCCCGAGAGGCACUCAGCUUAGCCAGGUGGAAAUCCUACAGCGCGUCAUCGACUACAUUCUCGACCUGCAGGUAGUCCUGCAACAGAGGAUUGAGCAUCA
B7: chr1:45660322:45660423:-|5pUTR|ENSG00000159592|unk|total|mutant (ssRNA)
RNA: GGGAGUUCUACAGUCCGACGAUCUCCCCUUCCCCCCUUCCCCUUUUCCCCUUUCCCCUUUUGGAAACGUGUCAGGAACCAAACCGUUUAAGAUGAGCAGUUGAGGGGACUGAGAGAGUGAUCGACACAGAACCUGGCUUCUUCCAACAGAGGAUUGAGCAUCA
B8: chr3:149369464:149369565:-|3pUTR|ENSG00000169908|msi1_unk|total|mutant (ssRNA)
RNA: GGGAGUUCUACAGUCCGACGAUCAAAUAACAUUCCAAUCACUAUUGUAUAUAUGUGCAUGUAUUUUUUAAAUUAAAGAUGUCCCGUUGCUUUUUAUAAGACCAAGAAGGAGAAAAUCCGACAACCUGGAAAGAUUUUUGUUUUCAACAGAGGAUUGAGCAUCA
B9: chr7:101138466:101138856:+|3pUTR|ENSG00000106366|msi1|FALSE|unique (ssRNA)
RNA: GGGAGUUCUACAGUCCGACGAUCGAGUGGGGGGACAGAGACUCAGAUGAGGACAGAGUGGUUUCCAAUGUGUUCAAUAGAUUUAGGAGCAGAAAUGCAAGGGGCUGCAUGACCUACCAGGACAGAACUUUCCCCAAUUACAGGCAACAGAGGAUUGAGCAUCA
B10: chr1:92387783:92387894:+|3pUTR|ENSG00000122484|unk|FALSE|unique (ssRNA)
RNA: GGGAGUUCUACAGUCCGACGAUCGGGAGCUUAGUGGGCAAGGAGGUAGGGAUAUAAUUUCUCUUCUUGGCUCCACCAGUAAUUAGCUCUGUGGCCCAGUCACCUAAACUUUCUGGACUUCAGUUCAGGUUGUAUGGCAGUAGGCAACAGAGGAUUGAGCAUCA
B11: chr11:61866962:61867357:+|3pUTR|ENSG00000134824|msi1|FALSE|unique (ssRNA)
RNA: GGGAGUUCUACAGUCCGACGAUCAGAUUCAGGGGAAGGGCAGGCACCAACAACUCAGAAUGGGGGCUUUCGGGGAGGGCGCCUAGUCCCCCCAGCUCUAAGCAGCCAGGAGGGACCUGCAUCUAAGCAUCUGGGUUGCCAUGGCAACAGAGGAUUGAGCAUCA
B12: chr19:13098382:13098626:+|3pUTR|ENSG00000008441|msi1|FALSE|unique (ssRNA)
RNA: GGGAGUUCUACAGUCCGACGAUCACGCAGUAUAUACGAGUAUCUCUAUAUAUAGUACUAAUGGAUUUGGUGUGCUUCCCCCUUAGCGUCCCCCUCCCUCUGCUCCUCCUCCUUCAGCCUGGUCUCCCCCUCUUCUCUGCCCUCCAACAGAGGAUUGAGCAUCA
B13: chr22:20142972:20143073:+|CDS|ENSG00000099904|msi1|FALSE|unique (ssRNA)
RNA: GGGAGUUCUACAGUCCGACGAUCGGGGAUCAUGUGGCCCUGCAGCCCCUGCGCUCUGAGGGGGGGCCCCCCACGCCCCACCGUAGCAUUUUUGCCCCCCAUGCACUGCCCAACCGCAACGGCAGCCUGUCCUAUGACAGCCUGCAACAGAGGAUUGAGCAUCA
B14: ENSG00000136451:be:win_3551|3pUTR|ENSG00000136451|bound_else_gene|NA|bound_elsewhere_windowed (ssRNA)
RNA: GGGAGUUCUACAGUCCGACGAUCACUACUGGAAGGACUCGUGUAGGGAAAGCCCAAGAAUGACCUUGCUGAGGCCUGGAUUGGGAGGCACAGUGGCCACAUUUGGAGGAAGUUCACAUUUCCUGGCAUGCAGACCCAAAACUGCAACAGAGGAUUGAGCAUCA
B15: chr2:223959526:223959698:+|CDS|ENSG00000135900|unk|FALSE|unique (ssRNA)
RNA: GGGAGUUCUACAGUCCGACGAUCCUGGGAUUACCAUGCAGAAAUACAAGCUUUUGGACAUCGGUUACAGGAAAACUUUUCCUUAGAUCUUCUCAAAACUGCAUUUGUUAAUAGCUGCUAUAUUAAAAGUGAGGAGGCCAAACGCAACAGAGGAUUGAGCAUCA
B16: ENSG00000126261:stop:overlap|stop_codon|ENSG00000126261|stop_codon|NA|stop_codon (ssRNA)
RNA: GGGAGUUCUACAGUCCGACGAUCAUCUCGUGCUCACCGGUUUCUCCCACAUCGACCUGCCACCAGGGUCUCACUAUUUUGCUUAGGCUGGUCUUGAAGGUCUGGGCUCAAGCGAUUCUCUCACUUUGUCCUCCCAAAGUGUUGCAACAGAGGAUUGAGCAUCA
B17: ENSG00000136451:be:win_1201|CDS|ENSG00000136451|bound_else_gene|NA|bound_elsewhere_windowed (ssRNA)
RNA: GGGAGUUCUACAGUCCGACGAUCUUCAGUAUAACAUCCUCUGUGUCGUCUGGGACUAUGUCAAACCCAGUCACAGUGGCAGCUGCAAUGAGCAUGAGAAGUCCAGUAAAUGUUUCAAGUGCAGUUAACAUAACCAGCCCAAUGCAACAGAGGAUUGAGCAUCA
B18: chr7:33006061:33006162:+|3pUTR|ENSG00000122642|msi1_unk|FALSE|overlapping (ssRNA)
RNA: GGGAGUUCUACAGUCCGACGAUCGGCAUCUCAGACCACAAAUAGAGAAUUUGAUUCCUCAUUUGCCACAUAAGUCAUCUGCUUAGCUUUUCCUUUCCUUUUUUUUUUUUUUUUUUUUUCUGGAGGCAGAGUCUCCCUUUGUCGCAACAGAGGAUUGAGCAUCA
B19: chr9:132262671:132262773:-|3pUTR|ENSG00000107290|unk|total|mutant (ssRNA)
RNA: GGGAGUUCUACAGUCCGACGAUCUGUGCAUUAUUUGACAUUUCCUUUGUCAUCUGCUUUUUAAGCAAAAAAGGGUUUUGUGUCCGAAAUUCUACUUGAGCAGAUUAUAAAGAGCUUUAAAAAACAACUUUCGGUUGCCAAAAGCAACAGAGGAUUGAGCAUCA
B20: chr5:150709129:150709230:-|3pUTR|ENSG00000132912|msi1|total|mutant (ssRNA)
RNA: GGGAGUUCUACAGUCCGACGAUCCACAAAACACUUUGAUCAUAAACUUUUUUCUUCAGAAGCCAAACUAACUUGCAGAAUAACCGAGCCACUGGUUUAAUGUUUCCUCAAGACCGGUUUCCGUGUAAGCCCGUAUUCUGUGUGCAACAGAGGAUUGAGCAUCA
B21: ENSG00000107863:be:win_3051|CDS|ENSG00000107863|bound_else_gene|NA|bound_elsewhere_windowed (ssRNA)
RNA: GGGAGUUCUACAGUCCGACGAUCAUGCCUGUUUCAGGCUGAAGACAGAGAUGAUAUGCUAGCUUGGAUCAAGACGAUCCAGGAGAGCAGCAACCUAAACGAAGAGGACACUGGAGUCACUAACAGGGAUCUAAUUAGUCGAAGCAACAGAGGAUUGAGCAUCA
B22: chr10:117282838:117282939:-|3pUTR|ENSG00000165650|unk|total|mutant (ssRNA)
RNA: GGGAGUUCUACAGUCCGACGAUCCCCCUUGUGUUAUUUUUCUUCCUCUUGGUUUUUGAAUCCGUGUUAAACCGAAUACUGUCCCGAUUCUUAAAAUAUUUUCAUUUCCAUCAUGGUUAUAACAAAUUUGCUGCAUGCCCAAACCAACAGAGGAUUGAGCAUCA

This assay deals with MSI1 full-length (mouse, UniProt Q61474 1-362). Description: nsRBNS (natural sequence RNA bind-n-seq); RBNS binding buffer (assumed for nsRBNS): 25 mM Tris pH 7.5, 150 mM KCl, 3 mM MgCl2, 0.01% Triton X-100, 500 ug/ml BSA, 20 U/ml SUPERase-In, 4 C; UNK is unkempt and MSI1 is Musashi-1; names of the RNAs are library labels; protein concentration not given here; high values mean tight binding.
Chain of UniProt Q61474 (Q61474 whole entry): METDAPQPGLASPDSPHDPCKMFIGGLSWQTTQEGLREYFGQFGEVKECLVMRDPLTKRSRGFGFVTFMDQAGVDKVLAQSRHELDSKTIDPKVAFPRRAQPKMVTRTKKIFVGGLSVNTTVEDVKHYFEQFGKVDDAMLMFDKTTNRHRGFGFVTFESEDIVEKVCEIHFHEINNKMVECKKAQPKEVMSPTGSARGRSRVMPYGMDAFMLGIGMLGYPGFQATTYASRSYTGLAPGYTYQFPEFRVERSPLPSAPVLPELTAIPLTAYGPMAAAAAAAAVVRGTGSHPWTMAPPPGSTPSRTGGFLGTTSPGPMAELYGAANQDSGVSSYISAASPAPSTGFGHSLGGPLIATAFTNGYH
For the molecule B1, the binding signal came out at 0.34 enrichment R. As for B2, the binding signal was found to be 0.434 enrichment R. Consider B3, for which the binding signal was determined as 0.211 enrichment R. The figure for B4 is 0.437 enrichment R.

B5 showed a binding signal of 0.548 enrichment R.

B6 came in with a binding signal of 0.484 enrichment R. For B7, the binding signal is 0.513 enrichment R. With B8, the binding signal was 2.06 enrichment R. The figure for B9 is 5.29 enrichment R; for B10 it is 0.649 enrichment R.

Molecule B11 registered a binding signal of 0.533 enrichment R.

Take B12: the binding signal stood at 1.34 enrichment R. Under B13 stands 0.605 enrichment R; under B14, 0.596 enrichment R; under B15, 0.633 enrichment R. The figure for B16 is 0.233 enrichment R; for B17 it is 0.369 enrichment R. Under B18 stands 1.89 enrichment R; under B19, 0.304 enrichment R; under B20, 0.273 enrichment R. Consider B21, for which the binding signal came out at 0.531 enrichment R. The figure for B22 is 0.677 enrichment R.
